Test results taken from the supplement of paper PMC7726561.
In all, about 1,400 sequences were measured (“thermal melting temperature (Tm) of peptide-HLA complex”: median about 60, lowest 2% from about 45 on). This is one part of the list.

What follows are sequences tested against HLA-B*07:02 (assay: thermal melting temperature (Tm) of peptide-HLA complex; higher = more thermostable pHLA complex). Settings: C1R-B*07:02.
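Note: cell lysates heated 10 min at 37–73 °C, remaining pHLA pulled down with pan-class I antibody, peptides quantified by DIA-MS versus 37 °C, Tm where half the complex is lost.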

Row | Sequence | thermal melting temperature
1 | RPAPVAVAA | 53.4 °C
2 | GPRPITQSEL | 60.9 °C
3 | LPRGGLTSI | 60.7 °C
4 | VPKPPSIEEF | 62.3 °C
5 | APRNSAELTVI | 61 °C
6 | TPWQPPTVL | 62 °C
7 | KPYSPLASL | 56.8 °C
8 | SPRPVVVET | 55 °C
9 | MGPQKALETI | 56.5 °C
10 | SPATWRLGL | 63.2 °C
11 | GPALGRSFL | 62.1 °C
12 | MPRNGTGVLIL | 59.4 °C
13 | APRWLEEEAAL | 62.7 °C
14 | YPRISVNNVL | 60.7 °C
15 | YPRMQVTVF | 61.9 °C
16 | QPIDNVSRNLL | 59.3 °C
